Data from publication PMC4336329 (PLoS ONE, 2015).
Among all 310,000 compounds or so, about 14,000 (4.5%) showed an effect of 50% or more. Effects have a minus sign here. This is one part of the list.

target: human ether-à-go-go-related gene (hERG) potassium channel (human, UniProt Q12809); experiment: primary screen, population patch clamp on CHO cells stably expressing hERG
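Note: peak tail current of the secondary pulse compared with the same well before compound.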

human ether-à-go-go-related gene (hERG) potassium channel, sequence (Q12809 whole entry, looked up): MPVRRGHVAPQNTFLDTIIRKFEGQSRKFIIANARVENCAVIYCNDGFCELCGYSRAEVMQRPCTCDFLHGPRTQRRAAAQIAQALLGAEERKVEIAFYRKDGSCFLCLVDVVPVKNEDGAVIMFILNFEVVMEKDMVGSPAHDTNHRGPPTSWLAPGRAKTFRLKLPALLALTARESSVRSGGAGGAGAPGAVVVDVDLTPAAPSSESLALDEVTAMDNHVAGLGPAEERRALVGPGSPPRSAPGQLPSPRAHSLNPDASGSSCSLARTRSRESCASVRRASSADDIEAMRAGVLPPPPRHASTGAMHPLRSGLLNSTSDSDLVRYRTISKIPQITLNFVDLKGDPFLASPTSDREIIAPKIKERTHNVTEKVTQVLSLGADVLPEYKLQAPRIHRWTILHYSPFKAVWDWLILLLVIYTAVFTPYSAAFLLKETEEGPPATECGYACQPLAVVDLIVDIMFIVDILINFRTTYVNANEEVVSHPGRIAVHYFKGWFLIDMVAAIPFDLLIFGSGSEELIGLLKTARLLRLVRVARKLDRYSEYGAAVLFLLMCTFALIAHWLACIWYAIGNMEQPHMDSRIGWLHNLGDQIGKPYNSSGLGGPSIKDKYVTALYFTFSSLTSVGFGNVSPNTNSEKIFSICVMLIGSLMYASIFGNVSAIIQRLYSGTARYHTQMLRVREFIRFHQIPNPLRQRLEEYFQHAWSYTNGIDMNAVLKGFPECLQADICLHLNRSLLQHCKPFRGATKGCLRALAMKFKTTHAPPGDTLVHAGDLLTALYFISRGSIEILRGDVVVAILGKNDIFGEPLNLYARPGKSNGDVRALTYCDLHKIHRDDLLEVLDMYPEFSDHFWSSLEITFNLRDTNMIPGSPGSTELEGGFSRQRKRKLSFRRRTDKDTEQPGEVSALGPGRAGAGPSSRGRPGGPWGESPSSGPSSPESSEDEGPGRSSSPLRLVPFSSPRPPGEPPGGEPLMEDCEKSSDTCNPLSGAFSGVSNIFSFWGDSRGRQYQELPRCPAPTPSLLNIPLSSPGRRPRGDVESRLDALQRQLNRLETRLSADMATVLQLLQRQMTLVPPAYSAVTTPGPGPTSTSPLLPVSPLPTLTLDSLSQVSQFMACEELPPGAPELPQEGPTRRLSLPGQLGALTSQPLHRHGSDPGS

Structure (SMILES)	hERG current change (%, negative = inhibition) at 10uM
Cc1cccc(CSc2nnnn2-c2ccccc2)c1	-6.7%
CCN(CC)S(=O)(=O)c1ccc(NCC2COc3ccccc3O2)c([N+](=O)[O-])c1 (centres unmarked)	-4.6%
Cl.O=C(NCCCN1CCOCC1)c1cc2c(s1)CCCC2	-25%
Cc1ccccc1N1CC(C(=O)N2CC(C)OC(C)C2)CC1=O (centres unmarked)	11.2%
Cc1cccc(Nc2nc(-c3ccncc3)cs2)c1	-1.2%
Cc1ccc(NC(=O)CN2C(=O)NC3(CCCCC3C)C2=O)cc1S(=O)(=O)N1CCCCC1 (centres unmarked)	-15.4%
CC(=O)c1ccc(N2CCN(C(=O)C3CCN(C(=O)Nc4ccccc4)CC3)CC2)cc1	-14%
Cc1sc2nc3c(SC(C)C(=O)O)cc(C(=O)c4ccccc4O)cn3c(=O)c2c1C (centres unmarked)	7.32%
COc1ccc(C(=O)NC2=NCCS2)cc1	16%
COc1ccc(OC)c(-c2cc(-c3cccnc3)nc(N)c2C#N)c1	7.56%
COc1ccc(-c2nnc(SC)nc2-c2ccc(OC)c([N+](=O)[O-])c2)cc1[N+](=O)[O-]	5.51%
Cc1cccn2c(=O)c3cc(C(=O)NCCC4=CCCCC4)n(C)c3nc12	10.6%
Cc1sc2nc(CSc3nnc(Cc4cccs4)n3C3CCCCC3)[nH]c(=O)c2c1C	3.46%
CC(C)CCn1c(SCCc2ccccc2)nc2c1c(=O)[nH]c(=O)n2C	16.1%
CCc1ccc(N2C(=O)CN(Cc3ccc(OC)c(OC)c3)C2=S)cc1	-3.14%
CCc1ccc(NC(=O)NCCN2CCCCC2)cc1	-49.3%
CCS(=O)(=O)N1CCN(c2ccc([N+](=O)[O-])c(NC(C)c3ccccc3)c2)CC1 (centres unmarked)	-4.64%
CC(=O)Nc1nc2ccc(S(=O)(=O)N3CCCC3)cc2s1	-2.85%
Cc1cc(/C=N/Nc2nc(N)ncc2[N+](=O)[O-])c(C)n1-c1ccccc1F	20.2%
COc1cc(OC)c(S(=O)(=O)Nc2ccc(C)cn2)cc1NC(C)=O	-8.05%
O=S(=O)(c1ccc(F)cc1)N1CCN(c2nc(-c3ccc(F)cc3)cs2)CC1	-8.44%
COc1ccc(C)cc1NC(=O)Nn1cnnc1	-4.55%
CCOC(=O)c1[nH]nc2c1C(=O)N(Cc1ccccc1)C2=O	6.13%

Structure (SMILES)	hERG current change (%, negative = inhibition) at 10uM
CCOC(=O)C1=C(N)Oc2ccccc2C12C(=O)N(CC(=O)OC)C(CC(=O)OC)=C2C(=O)OC (centres unmarked)	7.24%
CC1(c2cnc(Nc3ccccc3)s2)CCC(=O)O1 (centres unmarked)	1.59%
Cc1ccc(-c2nnc(-c3ccc4c(c3)OCO4)o2)cc1	-11%
CCc1ccc(NC(=O)C(=O)c2ccccc2NC(C)=O)cc1	-28.9%
CCC1(C)Cc2c(C#N)c(N)n(N)c(=S)c2CO1 (centres unmarked)	3.64%
O=C1COc2ccc(C(=O)COC(=O)CCSc3ccc(Cl)cc3)cc2N1	22.4%
O=C(O)C1Nc2c(cccc2C(F)(F)F)C2C=CCC12 (centres unmarked)	17.9%
Cc1cccc(N=C2NC(=O)/C(=C/C=C/c3ccco3)S2)c1	12.1%
N#CC(c1ccc(Cl)cc1)N1CCOCC1 (centres unmarked)	21.1%
COC(=O)c1ccccc1SCC(=O)Nc1ccc(N2CCOCC2)cc1	11.7%
COC(=O)c1sccc1NC(=O)c1ccc(OC)c(OC)c1	0.72%
COCCCNc1oc(/C=C/c2ccccc2)nc1C#N	-3.78%
Cc1oc(-c2cccs2)nc1CN1CCC(CO)(CCOc2ccccc2)CC1	-67%
O=C(COC(=O)CSc1ccc2ccccc2c1Br)NC1CC1	11.5%
CC1Nc2nc(N(C)C)[nH]c(=O)c2NC1C.Cl.O (centres unmarked)	2.37%
O=C(Nc1sc2c(c1C(=O)NCCO)CCCC2)c1ccco1	-36%
Cc1ccc(-c2cc(-c3ccccc3)nc(N)c2C#N)o1	17.1%
Cc1ccc(-n2ncc3c(NCc4cccnc4)ncnc32)cc1C	-18.5%
O=S(=O)(NCCN1CCCC1)c1cccc2cccnc12	4.11%
COC(=O)c1cccnc1-n1c(=O)c2cccnc2n(Cc2ccc(Cl)cc2)c1=O	-26.6%
COc1ccc(-c2noc(CCC(=O)NC3CCCCCC3)n2)cc1	-4.89%
CCc1cc2c3c(c1)C1(C(=O)N3C(C)(C)C=C2C)C(C#N)=C(N)Oc2[nH]c(=O)[nH]c(=O)c21 (centres unmarked)	3.95%
CC(=O)c1cccc(NC2c3ncccc3C(=O)N2Cc2ccco2)c1 (centres unmarked)	-10.6%

Structure (SMILES)	hERG current change (%, negative = inhibition) at 10uM
N#Cc1c(F)cccc1NCc1cccs1	5.69%
Cc1ccc(/C=C/C(=O)c2ccccc(=O)c2O)cc1C	-24.6%
Cc1cc(C(=O)CSc2nc3ccccc3[nH]2)c(C)n1Cc1ccco1	9.65%
CCOc1ccc(-c2[nH]ncc2Oc2cccc(OC)c2)c(O)c1	-8.67%
CC(C)c1ccc(N=C(N)N=C(N)N)cc1.Cl	-47.1%
COC(=O)CCCCCCCCCCN1CCCCC1	-17.3%
O=C(NC1CCCCCCC1)c1cccc(Cl)c1	19.9%
Cc1c(C(=O)N2CCOCC2)c(S(=O)(=O)N2CCN(c3ccc(Cl)cc3)CC2)c(C)n1C	-37.6%
CCCCC(CC)COC(=O)CCCCC(=O)OCC(CC)CCCC (centres unmarked)	15.8%
COc1ccccc1C(=O)COC(=O)CNC(=O)c1ccc(Br)o1	-50.7%
COc1ccc(C(=O)Nc2cccc(-c3cc4ccccc4oc3=O)c2)cc1[N+](=O)[O-]	-0.143%
CSc1nc2ncc(-c3ccsc3)c(N)n2n1	11.2%
O=C(Nc1ccc(NC(=O)c2ccc(Cl)cc2Cl)cc1)c1cccs1	14.7%
O=C(NCc1ccco1)C1CCN(C(=O)Cc2ccccc2)CC1	7.07%
S=C(Nc1ccc2snnc2c1)N1CCN(c2ccccn2)CC1	-0.00312%
COC(=O)COC(=O)c1ccc(-n2nnnc2SC)cc1	3.88%
COC(=O)c1cccc(C23CC4(C2)[C@H](CN(Cc2cccnc2)[C@@H]4c2ccccc2)C3c2ccccc2)c1 (some centres unmarked)	8.51%
CC(=O)CSc1ncnc2c1oc1ccccc12	5.35%
COCCNC(=O)C(c1ccco1)N(C(=O)Cn1nnc2ccccc21)c1cc(C)ccc1C (centres unmarked)	-4.75%
CNC(=S)Nc1cc(C)ccc1OC(F)F	2.85%
COc1ccc(OC)c(NC(=S)N2CCCC2)c1	7.18%
Cc1ccc(C)c(OCCn2cc(/C=C(\C#N)C(=O)NCc3cccs3)c3ccccc32)c1	21.4%
Cc1oc2cc(O)ccc2c(=O)c1-c1nncn1-c1ccccc1	20.2%

Structure (SMILES)	hERG current change (%, negative = inhibition) at 10uM
COc1ccc(-c2cc(-c3ccc(C)cc3)nc(SCc3nnc(-c4ccccc4)o3)c2C#N)cc1OC	18.7%
CNC(=O)Nc1ccccc1C(=O)Nc1ccccc1	5.82%
CCC(C)NC(=O)C1CCC(CNS(=O)(=O)c2ccc3c(c2)N(C(C)=O)CCO3)CC1 (centres unmarked)	6.84%
COc1ccc2nc(NC(=O)C3CCCO3)sc2c1 (centres unmarked)	-10.5%
Cc1cccc(NC(=S)NC(=O)Cc2ccccc2)c1C	26.5%
COc1ccc2[nH]cc(CCNC(=O)c3ccco3)c2c1	12.3%
COc1ccccc1NC(=O)NC1CCCCCCC1	22.5%
C=CC[n+]1c(-c2ccc(OC)c(OC)c2)csc1NNC(=O)Nc1ccccc1.[Br-]	-6.07%
O=C(O)CSc1nnc(Cn2cnc3ccccc32)n1CCc1ccccc1	22.3%
C=CCNC(=O)CCCCC(=O)NCC=C	8.15%
Cc1ccc(-n2ncc3c(=O)[nH]c(SCC(=O)N4CCCCC4)nc32)cc1	-8%
Cc1ccc(CNc2nc3ccc(C)cc3n3cnnc23)cc1	11.8%
CC(C)CN(C(=O)C1CCCO1)C1CCS(=O)(=O)C1 (centres unmarked)	-6.25%
CCOC(=O)C1(Cc2cccc(OC)c2)CCN(CCO)CC1	-54.3%
CC(C)Oc1ccc(Cn2c(=O)sc3ccccc32)cc1	-2.73%
O=C(CO/N=C/c1ccc(OC(F)F)cc1)N1CCc2ccccc21	-0.108%
Cc1cc(C)nc(NC(N)=NC(C)c2ccccc2)n1 (centres unmarked)	-0.0621%
c1cnn(-c2cc(N3CCOCC3)ncn2)c1	10.9%
O=C(COC(=O)c1nc(Cl)ccc1Cl)c1ccccc1Cl	-7.56%
CN(Cc1ccc(Br)s1)C(=O)CNC(=O)c1ccc2c(c1)OCO2	-21.4%
Nn1c(SCC(=O)N2CCOCC2)nnc1C1CC1	55.3%
CCC1CN(C(=O)N2CCC(C(=O)NCc3cccc(OC)c3OC)CC2)c2cc(C)ccc2O1 (centres unmarked)	-1.02%
O=C(CN1C(=O)C(=O)N(Cc2ccccc2)C1=O)Nc1ccc(F)c(Cl)c1	10.6%
